From article PMC4336329 (PLoS ONE, 2015)
Hit rate of the full screen: of about 310,000 compounds, about 14,000 (4.5%) showed an effect of 50% or more. Effects have a minus sign here. This is one part of the list.

The compounds below were run against human ether-à-go-go-related gene (hERG) potassium channel (human, UniProt Q12809) (assay: primary screen, population patch clamp on CHO cells stably expressing hERG).
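Also: peak tail current of the secondary pulse compared with the same well before compound.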

Sequence of human ether-à-go-go-related gene (hERG) potassium channel (Q12809 whole entry, looked up): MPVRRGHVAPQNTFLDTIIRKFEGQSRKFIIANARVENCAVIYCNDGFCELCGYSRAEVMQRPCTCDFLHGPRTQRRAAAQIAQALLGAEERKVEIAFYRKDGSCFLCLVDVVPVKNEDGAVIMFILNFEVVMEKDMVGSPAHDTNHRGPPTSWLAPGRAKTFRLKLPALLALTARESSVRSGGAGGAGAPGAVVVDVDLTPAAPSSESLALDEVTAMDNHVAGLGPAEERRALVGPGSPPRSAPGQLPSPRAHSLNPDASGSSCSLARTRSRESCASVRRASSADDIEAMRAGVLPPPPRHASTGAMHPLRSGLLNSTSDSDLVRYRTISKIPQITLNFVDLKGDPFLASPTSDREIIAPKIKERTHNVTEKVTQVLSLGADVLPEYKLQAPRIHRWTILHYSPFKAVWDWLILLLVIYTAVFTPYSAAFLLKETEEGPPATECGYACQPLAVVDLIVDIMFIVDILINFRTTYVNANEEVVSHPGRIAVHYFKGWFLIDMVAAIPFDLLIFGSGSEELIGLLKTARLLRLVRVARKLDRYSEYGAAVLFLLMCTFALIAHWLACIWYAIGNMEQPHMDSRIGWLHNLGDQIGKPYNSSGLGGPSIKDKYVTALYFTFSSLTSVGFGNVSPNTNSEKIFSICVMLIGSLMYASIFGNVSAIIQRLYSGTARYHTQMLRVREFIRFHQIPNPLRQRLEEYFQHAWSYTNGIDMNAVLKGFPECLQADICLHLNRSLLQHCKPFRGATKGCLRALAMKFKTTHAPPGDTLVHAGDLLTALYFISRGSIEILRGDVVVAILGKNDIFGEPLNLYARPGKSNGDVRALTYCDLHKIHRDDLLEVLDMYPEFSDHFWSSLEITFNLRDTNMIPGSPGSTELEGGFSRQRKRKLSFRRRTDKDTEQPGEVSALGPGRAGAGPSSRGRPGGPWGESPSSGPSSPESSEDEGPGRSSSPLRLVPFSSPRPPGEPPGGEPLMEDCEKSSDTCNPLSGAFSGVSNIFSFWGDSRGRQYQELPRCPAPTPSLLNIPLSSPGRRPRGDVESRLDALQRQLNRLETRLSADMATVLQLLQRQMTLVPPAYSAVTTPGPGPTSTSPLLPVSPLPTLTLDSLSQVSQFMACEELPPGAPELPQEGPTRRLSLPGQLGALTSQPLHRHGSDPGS

SMILES | hERG current change (%, negative = inhibition) at 10uM [%]
Cc1cc(C)n2c(SCC(=O)N(C)C3CCCCC3)nnc2n1 | 25.8
COc1ccc(/C=N/Nc2ccc(C(=O)O)cc2)c(OC)c1OC | 23.5
CCOC(=O)c1cccc(NC(=O)CN2C(=O)C3C4C=CC(C4)C3C2=O)c1 (stereo not drawn) | -13.7
COc1ccccc1C(=O)NC(CCSC)C(=O)NNC(=O)c1ccccc1O (stereo not drawn) | 15.3
O=C(O)c1sccc1SCc1ccc(Cl)cc1Cl | 13.1
COc1ccc(OCCCC(=O)Nc2cc(Cl)ccc2-n2cncn2)cc1 | -47.7
CCOc1ccc2[nH]c(C(=O)N/N=C/c3ccc(OC)cc3)cc2c1 | 19.4
CCc1c(C(=O)N/N=C/c2ccc(OCc3ccc(F)cc3)c(OC)c2)nnn1-c1nonc1N | 26.6
CC(=O)C1=C(C)NC(=O)NC1c1cc(Br)ccc1OCC#N (stereo not drawn) | 22.6
CC(C)[C@H](NS(=O)(=O)c1cccc(C(F)(F)F)c1)C(=O)OCC(N)=O | 9.97
COc1ccc(/C=C2\Oc3cc(OCC(=O)N4CC(O)C[C@H]4C(=O)O)ccc3C2=O)c(OC)c1OC (stereo partly drawn) | 16
CSCCC(NS(=O)(=O)c1ccc(Cl)cc1)C(=O)OCC(=O)c1ccc(F)cc1 (stereo not drawn) | -16
O=C(NC1CCCCC1)C(c1ccco1)N(Cc1cccs1)C(=O)Cn1nnc2ccccc21 (stereo not drawn) | 6.34
CC1=CC(C)(C)Nc2ccc(OC(=O)CN3C(=O)C4CCCCC4C3=O)cc21 (stereo not drawn) | -8.86
CC(=O)OC(CC(=O)O)C[N+](C)(C)C.[Cl-] (stereo not drawn) | 8.67
CC(NC(=O)CCCn1cc([N+](=O)[O-])cn1)c1ccccc1 (stereo not drawn) | -3.6
Nc1c(-c2ccc3c(c2)OCCO3)oc2ccccc2c1=O | 15.2
COc1ccc2c(c1)C(C)CC(C)(C)N2C(=O)CSc1nc2ccccc2s1 (stereo not drawn) | 11.9
CCOC(=O)c1cnc(SCCN2CCOCC2)nc1N | 9.59
CCCCn1c(N)c(N(CC(C)C)C(=O)COC(=O)Cc2cccc(OC)c2)c(=O)[nH]c1=O | -11.7
CCn1c(SCC(=O)Nc2ccc3c(c2)c2ccccc2n3CC)nnc1-c1ccco1 | 5.85

SMILES | hERG current change (%, negative = inhibition) at 10uM [%]
Cc1cccc(NS(=O)(=O)c2cccc3cccnc23)n1 | 4.27
CC(C)c1ccc2c(c1)C(N1CCN(C)CC1)Cc1cccnc1S2.O=C(O)/C=C\C(=O)O (stereo not drawn) | -50.6
CCOC(=O)c1oc2ccccc2c1NC(=O)COC | -12.2
CCOCCC(=O)Nc1cc(Cl)ccc1OC | -6.1
CC(C)Sc1nc2ccccc2[nH]1 | 27.8
CCOC(=O)c1c(C2COc3ccccc3O2)csc1NC(=O)c1ccco1 (stereo not drawn) | 13.2
N#Cc1ccccc1NC(=O)c1ccc(-c2ccccc2Cl)o1 | 14.7
O=C(NCc1cccnc1)C(=O)NCC(c1ccco1)N1CCN(c2ccccc2F)CC1 (stereo not drawn) | -4.89
CC1(C)CC(=O)C2=C(C1)OC1=C(C(=O)CC(C)(C)C1)C2c1ccc(O)c([N+](=O)[O-])c1 | 14
CC1CN(C(=O)c2cccc(S(=O)(=O)N3CCOCC3)c2)CC(C)O1 (stereo not drawn) | -12
CCOc1ncccc1C(=O)Oc1ccc2c(c1)OCO2 | -5.23
Cc1cccc(C2CC(c3ccc(Br)cc3)Nc3nc(N)nn32)c1 (stereo not drawn) | -25.2
O=C(CSc1ncnc2c1cnn2-c1ccc(F)cc1)NCc1ccc2c(c1)OCO2 | 21
Cc1ccc(C)c(NC(=O)CCN2CCOCC2)c1 | 23
Cc1ccc(C(=O)N/C(=C/c2ccco2)C(=O)N2CCC(C)CC2)cc1 | 24
O=C(Nc1ccc(S(=O)(=O)Nc2ncccn2)cc1)c1ccccc1Cl | -16.4
Cc1ccc2cccc(OCc3ccc(F)cc3)c2n1 | -0.4
NS(=O)(=O)c1ccc(CNC(=O)c2csc3c2CCCC3)cc1 | -4.61
COc1ccc(NC(=O)Nc2c[nH]c(=O)[nH]c2=O)cc1OC | 13.3
COc1ccc(CCNC(=O)C2CC(=O)N(c3ccc(F)cc3)C2)cc1OC (stereo not drawn) | 5.42
CC(C)CN1CCC(=O)N([C@H](COc2ccccc2)Cc2ccccc2)CC1 | -71.7
